# Measured values as given in the supplement of paper PMC8728848.
# The list shows a part of the results.
# Assays:
# Assay in all cases: glycan array binding signal (z-score within array); higher = stronger binding
# Conditions in all cases: glycan notation: IUPAC condensed, linker removed
# [1] = molecular target: Neu5Ac(a2-6)Gal(b1-4)GlcNAc(b1-6)GalNAc
# In short: (§1)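 Negative Z-scores can be read as non-binding. The Z-score is calculated within each array and then averaged across arrays of one protein sequence at different concentrations or buffers and across linkers. Arrays, 3228 in all, were curated from the Consortium for Functional Glycomics database and kept only where the protein sequence was available.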
# [2] = molecular target: Neu5Ac(a2-6)Gal(b1-4)GlcNAc(b1-6)[Gal(b1-3)GlcNAc(b1-3)]Gal(b1-4)Glc
# In short: as §1
# [3] = molecular target: Neu5Ac(a2-6)Gal(b1-4)GlcNAc(b1-6)[Gal(b1-3)]GalNAc
# In short: as §1
# [4] = molecular target: Neu5Ac(a2-6)Gal(b1-4)GlcNAc6S
# In short: as §1
# [5] = molecular target: Neu5Ac(a2-6)GalNAc
# In short: as §1
# [6] = molecular target: Neu5Ac(a2-6)GalNAc(b1-4)GlcNAc
# In short: as §1
# [7] = molecular target: Neu5Ac(a2-6)GalNAc(b1-4)GlcNAc6S
# In short: as §1
# [8] = molecular target: Neu5Ac(a2-6)GlcNAc(b1-4)GlcNAc
# In short: as §1
# [9] = molecular target: Neu5Ac(a2-6)GlcNAc(b1-4)GlcNAc(b1-4)GlcNAc
# In short: as §1
# [10] = molecular target: Neu5Ac(a2-8)Neu5Ac
# In short: as §1
# [11] = molecular target: Neu5Ac(a2-8)Neu5Ac(a2-3)Gal(b1-3)GalNAc(b1-4)[Neu5Ac(a2-3)]Gal(b1-4)Glc
# In short: as §1
# [12] = molecular target: Neu5Ac(a2-8)Neu5Ac(a2-3)Gal(b1-3)GalNAc(b1-4)[Neu5Ac(a2-8)Neu5Ac(a2-3)]Gal(b1-4)Glc
# In short: as §1
# [13] = molecular target: Neu5Ac(a2-8)Neu5Ac(a2-3)Gal(b1-4)Glc
# In short: as §1
# [14] = molecular target: Neu5Ac(a2-8)Neu5Ac(a2-3)Gal(b1-4)GlcNAc
# In short: as §1
# [15] = molecular target: Neu5Ac(a2-8)Neu5Ac(a2-3)[Gal(b1-3)GalNAc(b1-4)]Gal(b1-4)Glc
# In short: as §1
# [16] = molecular target: Neu5Ac(a2-8)Neu5Ac(a2-3)[GalNAc(b1-4)]Gal(b1-4)Glc
# In short: as §1
# [17] = molecular target: Neu5Ac(a2-8)Neu5Ac(a2-8)Neu5Ac
# In short: as §1
# [18] = molecular target: Neu5Ac(a2-8)Neu5Ac(a2-8)Neu5Ac(a2-3)Gal(b1-4)Glc
# In short: as §1
# [19] = molecular target: Neu5Ac(a2-8)Neu5Ac(a2-8)Neu5Ac(a2-3)[Gal(b1-3)GalNAc(b1-4)]Gal(b1-4)Glc
# In short: as §1
# [20] = molecular target: Neu5Ac(a2-8)Neu5Ac(a2-8)Neu5Ac(a2-3)[GalNAc(b1-4)]Gal(b1-4)Glc
# In short: as §1
# [21] = molecular target: Neu5Ac(a2-8)Neu5Ac(a2-8)Neu5Ac(a2-8)Neu5Ac(a2-3)[GalNAc(b1-4)]Gal(b1-4)Glc
# In short: as §1
# [22] = molecular target: Neu5Ac(a2-8)Neu5Gc(a2-3)Gal(b1-4)GlcNAc
# In short: as §1
# [23] = molecular target: Neu5Ac(b2-6)Gal(b1-4)GlcNAc
# In short: as §1
# [24] = molecular target: Neu5Ac(b2-6)GalNAc
# In short: as §1
# [25] = molecular target: Neu5Ac9Ac(a2-3)Gal(b1-3)GlcNAc
# In short: as §1
# [26] = molecular target: Neu5Ac9Ac(a2-3)Gal(b1-4)GlcNAc
# In short: as §1
# [27] = molecular target: Neu5Ac9Ac(a2-6)Gal(b1-4)GlcNAc
# In short: as §1
# [28] = molecular target: Neu5Gc(a2-3)Gal(b1-3)GlcNAc
# In short: as §1
# [29] = molecular target: Neu5Gc(a2-3)Gal(b1-3)[Fuc(a1-4)]GlcNAc
# In short: as §1
# [30] = molecular target: Neu5Gc(a2-3)Gal(b1-4)Glc
# In short: as §1
# [31] = molecular target: Neu5Gc(a2-3)Gal(b1-4)GlcNAc
# In short: as §1
# [32] = molecular target: Neu5Gc(a2-3)Gal(b1-4)GlcNAc(b1-3)Gal(b1-4)GlcNAc(b1-2)Man(a1-3)[Neu5Gc(a2-3)Gal(b1-4)GlcNAc(b1-3)Gal(b1-4)GlcNAc(b1-2)Man(a1-6)]Man(b1-4)GlcNAc(b1-4)GlcNAc
# In short: as §1
# [33] = molecular target: Neu5Gc(a2-3)Gal(b1-4)[Fuc(a1-3)]GlcNAc
# In short: as §1
# [34] = molecular target: Neu5Gc(a2-3)Gal(b1-4)[Fuc(a1-4)]GlcNAc
# In short: as §1
# [35] = molecular target: Neu5Gc(a2-6)Gal(b1-4)GlcNAc
# In short: as §1
# [36] = molecular target: Neu5Gc(a2-6)GalNAc
# In short: as §1
# [37] = molecular target: Neu5Gc(a2-8)Neu5Ac(a2-3)Gal(b1-4)GlcNAc
# In short: as §1
# [38] = molecular target: Neu5Gc(a2-8)Neu5Gc(a2-3)Gal(b1-4)GlcNAc
# In short: as §1
binder,measurement,setting,value
Epa12 (Candida glabrata) (protein) MGSSHHHHHHSSGLVPRGSHMLEPDNSLQIFDSFLSNPSKYPLGCSPKITNPKKGLSMELYSYPYRKKGSHPCWDPAYLDPNFPRVGYKKNKLIARVDGVSGDINFNFHPKRQCTPIADYLPPNFNYNEPITTTNFTMLLYGYFKPKVTGLHTFDISADDLLFMNFGAGNAFDCCRRDSTADTFGNYVAWAIWGRRIVRNKLTVRLDKGIYYPLRLFFNNRDYYGQMRLTFKTEHGSERITDFSDYFFSVDDTSEGCPGLITYESECADVKSSTVLETDYITIQAEKE,glycan array binding signal (z-score),[1],-0.256
same,glycan array binding signal (z-score),[2],-0.131
same,glycan array binding signal (z-score),[3],-0.107
same,glycan array binding signal (z-score),[4],-0.234
same,glycan array binding signal (z-score),[5],-0.328
same,glycan array binding signal (z-score),[6],-0.339
same,glycan array binding signal (z-score),[7],-0.36
same,glycan array binding signal (z-score),[8],-0.331
same,glycan array binding signal (z-score),[9],-0.447
same,glycan array binding signal (z-score),[10],-0.362
same,glycan array binding signal (z-score),[11],-0.255
same,glycan array binding signal (z-score),[12],0.219
same,glycan array binding signal (z-score),[13],-0.253
same,glycan array binding signal (z-score),[14],-0.285
same,glycan array binding signal (z-score),[15],-0.268
same,glycan array binding signal (z-score),[16],-0.25
same,glycan array binding signal (z-score),[17],-0.28
same,glycan array binding signal (z-score),[18],-0.406
same,glycan array binding signal (z-score),[19],-0.408
same,glycan array binding signal (z-score),[20],-0.232
same,glycan array binding signal (z-score),[21],-0.258
same,glycan array binding signal (z-score),[22],-0.413
same,glycan array binding signal (z-score),[23],-0.303
same,glycan array binding signal (z-score),[24],-0.396
same,glycan array binding signal (z-score),[25],-0.298
same,glycan array binding signal (z-score),[26],-0.376
same,glycan array binding signal (z-score),[27],-0.252
same,glycan array binding signal (z-score),[28],-0.286
same,glycan array binding signal (z-score),[29],-0.309
same,glycan array binding signal (z-score),[30],-0.277
same,glycan array binding signal (z-score),[31],-0.288
same,glycan array binding signal (z-score),[32],-0.366
same,glycan array binding signal (z-score),[33],-0.349
same,glycan array binding signal (z-score),[34],-0.243
same,glycan array binding signal (z-score),[35],-0.175
same,glycan array binding signal (z-score),[36],-0.309
same,glycan array binding signal (z-score),[37],-0.358
same,glycan array binding signal (z-score),[38],-0.374
